# In all, about 5,500 compounds went through this assay and about 2,000 (36%) were called active. This list was built around the results that the source calls inconclusive (neither active nor inactive); the mix of calls is not that of the screen. Cut-off read from the data, not from the text of the source: active = normalized growth mostly below about 0.91 (no sharp cut-off); inconclusive = no clear call, values can overlap the other calls; inactive = mostly above about 0.92. A structure can be active in one record and inactive in another.
# Assay: chemical genetic growth profiling, strain panel (AID 1159580);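 note: tested at 20 µM; growth read once vehicle control cultures reached saturation at 30 °C; 1 = growth at the plate median or of vehicle wells; lower values mean less growth of the strain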
# Settings: S. cerevisiae deletion strains, growth OD
# [1] = locus YFR028C, strain CDC14, stronger effect = lower value
# [2] = locus YNL175C, strain NOP13, stronger effect = lower value
structure (smiles),measurement,setting,value
CC1C/C(=N/Nc2ccc(Br)cc2)c2cc(Cl)ccc2S1 (stereo not drawn),normalized growth,[1],inconclusive: 0.825 [sensitive]
same,normalized growth,"locus YPR106W, strain ISR1, stronger effect = lower value",inconclusive: 0.83 [sensitive]
COc1ccc(C(=O)CC(=O)O)c2c1C=CC(C)(C)O2,normalized growth,"locus YEL061C, strain CIN8 (second series), stronger effect = lower value",inconclusive: 0.885 [sensitive]
O=[N+]([O-])c1cccc2c(Br)[nH]nc12,normalized growth,"locus YAL040C, strain CLN3, stronger effect = lower value",inconclusive: 0.847 [sensitive]
O=C(CSc1nnc(NC(=O)c2cccc([N+](=O)[O-])c2)s1)Nc1ccc2c(c1)OCO2,normalized growth,"locus YPL241C, strain CIN2, stronger effect = lower value",inconclusive: 1.18 [resistant]
CC(CN1c2ccccc2Sc2cccnc21)N(C)C (stereo not drawn),normalized growth,"locus YDL185W, strain tfp1, stronger effect = lower value",inconclusive: 0.815 [sensitive]
O=C1NCN(c2ccccc2)C12CCN(CCCC(c1ccc(F)cc1)c1ccc(F)cc1)CC2,normalized growth,[2],inconclusive: 1.13 [resistant]
Cc1cc(C2CCCCC2)n(O)c(=O)c1,normalized growth,"locus YOL012C, strain htz1",inconclusive: 0.201 [sensitive]
COc1ccc2c(c1)CCC1C2CC[C@@]2(C)C1CC[C@@H]2NCCCCCCN1C(=O)C=CC1=O (stereo partly drawn),normalized growth,[2],inconclusive: 0.815 [sensitive]
C[C@@H]1OC(O[C@H]2C(O[C@H]3CC[C@@]4(C)C(CC[C@]5(C)C4CC=C4C6CC(C)(C)CC[C@]6(C(=O)O)CC[C@]45C)[C@]3(C)CO)OC[C@H](O)[C@@H]2O)[C@H](O)[C@H](O)[C@H]1O (stereo partly drawn),normalized growth,"locus YOL012C, strain htz1",inconclusive: 0.2 [sensitive]
CS(=O)(=O)c1ccc(C2=C(c3ccccc3)C(=O)OC2)cc1,normalized growth,"locus YPR119W, strain clb2, stronger effect = lower value",inconclusive: 0.912 [sensitive]
C=CC(C)(O)CC/C=C(\C)CCC=C(C)C (stereo not drawn),normalized growth,"locus YBR279W, strain paf1, stronger effect = lower value",inconclusive: 0.893 [sensitive]
Cc1ncc([N+](=O)[O-])n1CC(O)CCl (stereo not drawn),normalized growth,"locus YHR030C, strain SLT2, stronger effect = lower value",inconclusive: 0.812 [sensitive]
O=C(Nc1ccc(Cl)c(Cl)c1)c1ccccc1,normalized growth,"locus YMR263W, strain SAP30, stronger effect = lower value",inconclusive: 0.846 [sensitive]
CC(C)/C(=N/OC(=O)c1ccc([N+](=O)[O-])cc1)c1ccccc1,normalized growth,"locus YBR135W, strain CKS1, stronger effect = lower value",inconclusive: 0.895 [sensitive]
same,normalized growth,"locus YDL132W, strain cdc53, stronger effect = lower value",inconclusive: 0.746 [sensitive]
same,normalized growth,"locus YDR477W, strain SNF1, stronger effect = lower value",inconclusive: 0.548 [sensitive]
same,normalized growth,"locus YER133W, strain GLC7, stronger effect = lower value",inconclusive: 0.497 [sensitive]
same,normalized growth,"locus YFL009W, strain cdc4, stronger effect = lower value",inconclusive: 0.548 [sensitive]
same,normalized growth,"locus YFL029C, strain CAK1, stronger effect = lower value",inconclusive: 0.685 [sensitive]
same,normalized growth,"locus YFR019W, strain FAB1, stronger effect = lower value",inconclusive: 0.508 [sensitive]
same,normalized growth,[1],inconclusive: 0.818 [sensitive]
same,normalized growth,"locus YHR079C, strain IRE1, stronger effect = lower value",inconclusive: 0.464 [sensitive]
same,normalized growth,"locus YHR082C, strain KSP1, stronger effect = lower value",inconclusive: 0.638 [sensitive]
same,normalized growth,"locus YHR205W, strain SCH9, stronger effect = lower value",inconclusive: 0.505 [sensitive]
same,normalized growth,"locus YJL157C, strain FAR1, stronger effect = lower value",inconclusive: 0.505 [sensitive]
same,normalized growth,"locus YKL193C, strain SDS22, stronger effect = lower value",inconclusive: 0.651 [sensitive]
same,normalized growth,"locus YMR277W, strain FCP1, stronger effect = lower value",inconclusive: 0.572 [sensitive]
same,normalized growth,"locus YNL222W, strain SSU72, stronger effect = lower value",inconclusive: 0.669 [sensitive]
same,normalized growth,"locus YNL307C, strain MCK1 (second series), stronger effect = lower value",inconclusive: 0.476 [sensitive]
same,normalized growth,"locus YOL078W, strain AVO1, stronger effect = lower value",inconclusive: 0.647 [sensitive]
same,normalized growth,"locus YOL136C, strain PFK27, stronger effect = lower value",inconclusive: 0.529 [sensitive]
same,normalized growth,"locus YOR061W, strain CKA2, stronger effect = lower value",inconclusive: 0.46 [sensitive]
same,normalized growth,"locus YOR231W, strain MKK1, stronger effect = lower value",inconclusive: 0.527 [sensitive]
same,normalized growth,"locus YPL031C, strain PHO85, stronger effect = lower value",inconclusive: 0.48 [sensitive]
same,normalized growth,"locus YPL204W, strain HRR25, stronger effect = lower value",inconclusive: 0.496 [sensitive]
same,normalized growth,"locus YPR025C, strain CCL1, stronger effect = lower value",inconclusive: 0.787 [sensitive]
same,normalized growth,"strain TSCII, stronger effect = lower value",inconclusive: 0.781 [sensitive]

# From PubChem BioAssay AID1159580 (chemical genetic matrix, 2015)
